Assay results from PubChem BioAssay AID1347417 (National Center for Advancing Translational Sciences (NCATS), 2020).
Hit rate of the full screen: of about 120,000 compounds, about 5,300 (4.4%) were called active. Inconclusive means that the source gave no clear call. Such entries were picked first, then a sample of the others. The call rests on the fitted dose curve; in most records, active means well fitted inhibition curve with a large enough effect; inconclusive means small, poorly fitted or top-dose-only effect; inactive means no such curve, though single readings can be large or run the other way. Where the call is inconclusive, the potency comes from a doubtful curve fit.

assay: qHTS Primary assay for Inhibitors of Plasmodium falciparum Dd2 growth in vitro; further: nearly all actives have a fitted effect of over 65% in size; conditions: P. falciparum Dd2 growth, SYBR Green, 72 h; series mostly up to 28.9 µM
In short: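 Readout: SYBR Green fluorescence, 485 nm excitation, 535 nm emission, after ~16 h lysis at 37C. Before that, Dd2-infected red cells (2.5% hematocrit) grew 72 h with compound, 29 uM top final concentration.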
Potency means the concentration at half of the fitted maximal effect; tags describe the fitted curve by direction and shape.

| SMILES | Potency |
| --- | --- |
| COc1ccc(-c2nc(C)nc3c2CCN(C(=O)c2ccccc2OC)CC3)cc1 | inactive |
| COc1ccc(C(=O)N2CCC3(CC2)NC(=O)N(c2cccc(F)c2)N3)cc1OC | inconclusive: 6.31 µM [inhibitor, partial curve, poor fit] |
| Cc1cc(C(=O)N2CCCC(C(=O)Nc3cccc(-c4cc5ccccc5[nH]4)c3)C2)nn1C (configuration not stated) | inconclusive: 20 µM [inhibitor, single point] |
| COc1ccc(-c2[nH]nc3ncc(-c4cccc(F)c4)nc23)c(C)c1 | inconclusive: 11.2 µM [inhibitor, partial curve] |
| COc1ccccc1Nc1nn2c(=O)c3ccc(C(=O)N4CCC(C)CC4)cc3nc2s1 | inconclusive: 17.8 µM [inhibitor, single point] |
| Cn1ncc2c(C(=O)N3CCC(C#N)CC3)cc(-c3cc(Cl)cc(Cl)c3)nc21 | inconclusive: 10 µM [inhibitor, partial curve, poor fit] |
| O=C(c1nc(-c2ccc(Cl)cc2)n2c1CCCCC2)N1CCN(c2ccccc2F)CC1 | inconclusive: 12.6 µM [inhibitor, single point] |
| COc1ccccc1CNC(=O)CC1N=C2c3ccccc3N=C(SCC(=O)Nc3ccc(F)cc3)N2C1=O (configuration not stated) | inconclusive: 11.2 µM [inhibitor, single point] |
| Cc1cnc(CC2CCN(C(=O)NCC(C)C)CC2)n1Cc1ccc(F)cc1 | inconclusive: 3.98 µM [inhibitor, partial curve, poor fit] |
| CCOC(=O)c1c(-c2ccccc2)oc2ccc(NS(=O)(=O)c3ccc(OC)cc3)cc12 | inconclusive: 11.2 µM [inhibitor, single point] |
| O=C(Cc1ccc(N(Cc2ccccc2)C(=O)c2ccco2)cc1)N1CCOCC1 | inactive |
| Cc1cccc(C(=O)Nc2c3c(nn2-c2ccc(Cl)cc2)CS(=O)(=O)C3)c1 | inconclusive: 17.8 µM [inhibitor, single point] |
| CCOC(=O)c1ccc2c(c1)N(Cc1cccc(OC)c1)C(=O)c1ccccc1S2(=O)=O | inconclusive: 11.2 µM [inhibitor, partial curve] |
| CC(C)C(=O)N1Cc2ccccc2CC2(CCCN(Cc3ccccc3)C2)C1 (configuration not stated) | active: 3.55 µM |
| CC(C)CCN1CCC2(C1)C(=NC1CCCC1)NC(=O)N2c1cc(F)cc(F)c1 (configuration not stated) | active: 8.91 µM |
| COc1ccc(OCC(=O)NCC2(N3CCN(C)CC3)CCCCC2)cc1 | inconclusive: 1 µM [inhibitor, full curve, poor fit] |
| COc1cccc(C(=O)N2CCN(c3cc(C(F)(F)F)nc(C)n3)CC2)c1 | inconclusive: 17.8 µM [inhibitor, single point] |
